Structures can show the parent of a compound that is named as a salt.
The compounds below were run on MLKL phosphorylation, HT29-L23 human colorectal adenocarcinoma cells (assay: cells). Details: read-out: pMLKL HCS Cell Assay (IC50, uM).

Structure (SMILES)	IC50 [µM]
COc1ncc(-c2cc(CN3CCC(F)(F)CC3)c3c(N)ncnn23)cc1C(=O)N[C@@H]1CN(C(=O)c2c(F)cc(F)cc2F)C[C@@H]1F [Example 1251, 5-{4-amino-5-[(4,4-difluoropiperidin-1-yl)methyl]pyrrolo[2,1-f][1,2,4]triazin-7-yl}-N-[(3R,4S)-4-fluoro-1-(2,4,6-trifluorobenzoyl)pyrrolidin-3-yl]-2-methoxypyridine-3-carboxamide]	0.0009
COc1ncc(-c2cc(C(F)(F)F)c3c(N)ncnn23)cc1C(=O)N[C@@H]1CN(C(=O)O[C@H](C)CO)C[C@@H]1F [Example 1450, (2R)-1-hydroxypropan-2-yl (3R,4S)-3-{5-[4-amino-5-(trifluoromethyl)pyrrolo[2,1-f][1,2,4]triazin-7-yl]-2-methoxypyridine-3-amido}-4-fluoropyrrolidine-1-carboxylate]	0.164
COc1cc(C(=O)N[C@@H]2CN(C(=O)C3(F)CC3)C[C@@H]2F)cc(-c2cc(C(F)(F)F)c3c(N)ncnn23)c1 [Example 576, 3-[4-amino-5-(trifluoromethyl)pyrrolo[2,1-f][1,2,4]triazin-7-yl]-N-[(3R,4S)-4-fluoro-1-(1-fluorocyclopropanecarbonyl)pyrrolidin-3-yl]-5-methoxybenzamide]	0.031
Cc1cccc(C(=O)N2C[C@H](F)[C@H](NC(=O)c3cc(-c4cc(C(F)(F)F)c5c(N)ncnn45)c(F)cc3C)C2)n1 [Example 842, 5-[4-amino-5-(trifluoromethyl)pyrrolo[2,1-f][1,2,4]triazin-7-yl]-4-fluoro-N-[(3R,4S)-4-fluoro-1-(6-methylpyridine-2-carbonyl)pyrrolidin-3-yl]-2-methylbenzamide]	0.023
COc1ncc(-c2cc(C(F)(F)F)c3c(N)ncnn23)cc1C(=O)N[C@@H]1CN(C(=O)C(C)(C)c2ccccc2)C[C@@H]1F [Example 344, 5-[4-amino-5-(trifluoromethyl)pyrrolo[2,1-f][1,2,4]triazin-7-yl]-N-[(3R,4S)-4-fluoro-1-(2-methyl-2-phenylpropanoyl)pyrrolidin-3-yl]-2-methoxypyridine-3-carboxamide]	0.191
COc1ncc(-c2cc(CN3CCC(F)(F)CC3)c3c(N)ncnn23)cc1C(=O)N[C@@H]1CN(C(=O)c2cnccc2C(F)(F)F)C[C@@H]1F [Example 1255, 5-{4-amino-5-[(4,4-difluoropiperidin-1-yl)methyl]pyrrolo[2,1-f][1,2,4]triazin-7-yl}-N-[(3R,4S)-4-fluoro-1-[4-(trifluoromethyl)pyridine-3-carbonyl]pyrrolidin-3-yl]-2-methoxypyridine-3-carboxamide]	0.0047
Nc1ncnn2c(-c3cccc(C(=O)N[C@@H]4CN(C(=O)c5ccccc5F)C[C@@H]4F)c3)cc(C(F)(F)F)c12 [Example 91, 3-[4-amino-5-(trifluoromethyl)pyrrolo[2,1-f][1,2,4]triazin-7-yl]-N-[(3R,4S)-4-fluoro-1-(2-fluorobenzoyl)pyrrolidin-3-yl]benzamide]	0.009
Cc1ncc(-c2cc(C(F)(F)F)c3c(N)ncnn23)cc1C(=O)N[C@@H]1CN(C(=O)C2(O)CCCC2)C[C@@H]1F [Example 362, 5-[4-amino-5-(trifluoromethyl)pyrrolo [2,1-f][1,2,4]triazin-7-yl]-N-[(3R,4S)-4-fluoro-1-(1-hydroxycyclopentane-carbonyl)pyrrolidin-3-yl]-2-methyl-pyridine-3-carboxamide, TFA]	0.031
Nc1ncnn2c(-c3ccc(F)c(C(=O)NCCC(O)(c4ccccc4)C(F)(F)F)c3)cc(C(F)(F)F)c12 (stereo not shown) [Example 249, 5-[4-amino-5-(trifluoromethyl)pyrrolo[2,1-f][1,2,4]triazin-7-yl]-2-fluoro-N-(4,4,4-trifluoro-3-hydroxy-3-phenylbutyl)benzamide]	0.201
COc1ncc(-c2cc(CN3CC4C(C3)C4(F)F)c3c(N)ncnn23)cc1C(=O)N[C@@H]1CN(C(=O)[C@@](C)(O)C(F)(F)F)C[C@@H]1F (stereo partly drawn) [Example 1607, 5-[4-amino-5-({6,6-difluoro-3-azabicyclo[3.1.0]hexan-3-yl}methyl)pyrrolo[2,1-f][1,2,4]triazin-7-yl]-N-[(3R,4S)-4-fluoro-1-[(2R)-3,3,3-trifluoro-2-hydroxy-2-methylpropanoyl]pyrrolidin-3-yl]-2-methoxypyridine-3-carboxamide]	0.0012
COc1ncc(-c2cc(C(F)(F)F)c3c(N)ncnn23)cc1C(=O)N[C@@H]1CN(C(=O)OCCO)C[C@@H]1F [Example 1453, 2-hydroxyethyl (3R,4S)-3-{5-[4-amino-5-(trifluoromethyl)pyrrolo[2,1-f][1,2,4]triazin-7-yl]-2-methoxypyridine-3-amido}-4-fluoropyrrolidine-1-carboxylate]	0.318
CC(CC(=O)N1C[C@H](F)[C@H](NC(=O)c2cc(-c3cc(C(F)(F)F)c4c(N)ncnn34)ccc2Cl)C1)C(F)(F)F (stereo partly drawn) [Example 941, 5-[4-amino-5-(trifluoromethyl)pyrrolo[2,1-f][1,2,4]triazin-7-yl]-2-chloro-N-[(3R,4S)-4-fluoro-1-(4,4,4-trifluoro-3-methylbutanoyl)pyrrolidin-3-yl]benzamide]	0.0025
CC(C)(C)C(=O)N1C[C@H](F)[C@H](NC(=O)c2cc(F)cc(-c3cc(C(F)(F)F)c4c(N)ncnn34)c2)C1 [Example 604, 3-[4-amino-5-(trifluoromethyl)pyrrolo[2,1-f][1,2,4]triazin-7-yl]-N-[(3R,4S)-1-(2,2-dimethylpropanoyl)-4-fluoropyrrolidin-3-yl]-5-fluorobenzamide]	0.029
COc1ccc(-c2cc(C(F)(F)F)c3c(N)ncnn23)cc1C(=O)N[C@@H]1CN(C(=O)CC(O)(C(F)(F)F)C(F)(F)F)C[C@@H]1F [Example 1126, 5-[4-amino-5-(trifluoromethyl)pyrrolo[2,1-f][1,2,4]triazin-7-yl]-N-[(3R,4S)-4-fluoro-1-[4,4,4-trifluoro-3-hydroxy-3-(trifluoromethyl)butanoyl]pyrrolidin-3-yl]-2-methoxybenzamide]	0.0018
Nc1ncnn2c(-c3ccc(Cl)c(C(=O)N[C@@H]4CN(C(=O)C5CC(F)(F)C5)C[C@@H]4F)c3)cc(CN3CCC(C(F)(F)F)CC3)c12 [Example 1157]	0.0017
CCc1ccc(-c2cc(C(F)(F)F)c3c(N)ncnn23)c(F)c1C(=O)N[C@@H]1CN(C(=O)C2CC(F)(F)C2)C[C@@H]1F [Example 741, 3-[4-amino-5-(trifluoromethyl)pyrrolo[2,1-f][1,2,4]triazin-7-yl]-N-[(3R,4S)-1-(3,3-difluorocyclobutanecarbonyl)-4-fluoropyrrolidin-3-yl]-6-ethyl-2-fluorobenzamide]	0.0061
COc1ncc(-c2cc(C(F)(F)F)c3c(N)ncnn23)cc1C(=O)N[C@@H]1CN(C(=O)c2cccnc2)C[C@@H]1F [Example 336, 5-[4-amino-5-(trifluoromethyl)pyrrolo[2,1-f][1,2,4]triazin-7-yl]-N-[(3R,4S)-4-fluoro-1-(pyridine-3-carbonyl)pyrrolidin-3-yl]-2-methoxypyridine-3-carboxamide]	0.129
Cc1ccc(-c2cc(C(F)(F)F)c3c(N)ncnn23)cc1C(=O)N[C@@H]1CN(C(=O)c2c(F)cncc2F)C[C@@H]1F [Example 1005, 5-[4-amino-5-(trifluoromethyl)pyrrolo[2,1-f][1,2,4]triazin-7-yl]-N-[(3R,4S)-1-(3,5-difluoropyridine-4-carbonyl)-4-fluoropyrrolidin-3-yl]-2-methylbenzamide]	0.0029
Nc1ncnn2c(-c3ccc(OC(F)F)c(C(=O)N[C@@H]4CN(C(=O)C5CC5(F)F)C[C@@H]4F)c3)cc(C(F)(F)F)c12 (stereo partly drawn) [Example 1086, 5-[4-amino-5-(trifluoromethyl)pyrrolo[2,1-f][1,2,4]triazin-7-yl]-N-[(3R,4S)-1-(2,2-difluorocyclopropanecarbonyl)-4-fluoropyrrolidin-3-yl]-2-(difluoromethoxy)benzamide]	0.042
[2H]C([2H])([2H])Oc1ncc(-c2cc(CN3CC(F)(F)C3)c3c(N)ncnn23)cc1C(=O)N[C@@H]1CN(C(=O)C(C)(C)C)C[C@@H]1F [Example 1277, 5-{4-amino-5-[(3,3-difluoroazetidin-1-yl)methyl]pyrrolo[2,1-f][1,2,4]triazin-7-yl}-N-[(3R,4S)-1-(2,2-dimethylpropanoyl)-4-fluoropyrrolidin-3-yl]-2-(methoxy-d3)nicotinamide]	0.0011
Nc1ncnn2c(-c3ccc(Cl)c(C(=O)N[C@@H]4CN(C(=O)c5ccncc5F)C[C@@H]4F)c3)cc(C(F)(F)F)c12 [Example 961, 5-[4-amino-5-(trifluoromethyl)pyrrolo[2,1-f][1,2,4]triazin-7-yl]-2-chloro-N-[(3R,4S)-4-fluoro-1-(3-fluoropyridine-4-carbonyl)pyrrolidin-3-yl]benzamide]	0.025
Nc1ncnn2c(-c3cccc(C(=O)N[C@@H]4CN(C(=O)c5ccc(F)cc5)C[C@@H]4F)c3)cc(C(F)(F)F)c12 [Example 104, 3-[4-amino-5-(trifluoromethyl)pyrrolo[2,1-f][1,2,4]triazin-7-yl]-N-[(3R,4S)-4-fluoro-1-(4-fluorobenzoyl)pyrrolidin-3-yl]benzamide]	0.045
Nc1ncnn2c(-c3ccc(OC(F)(F)F)c(C(=O)N[C@@H]4CN(C(=O)CC(O)(C(F)(F)F)C(F)(F)F)C[C@@H]4F)c3)cc(C(F)(F)F)c12 [Example 1060, 5-[4-amino-5-(trifluoromethyl)pyrrolo[2,1-f][1,2,4]triazin-7-yl]-N-[(3R,4S)-4-fluoro-1-[4,4,4-trifluoro-3-hydroxy-3-(trifluoromethyl)butanoyl]pyrrolidin-3-yl]-2-(trifluoromethoxy)benzamide]	0.08
COc1ncc(-c2ccc3c(N)ncnn23)cc1C(=O)NCCC(C)c1ccccc1 (stereo not shown) [Example 151, 5-{4-aminopyrrolo[2,1-f][1,2,4]triazin-7-yl}-2-methoxy-N-(3-phenylbutyl)pyridine-3-carboxamide]	0.009
Nc1ncnn2c(-c3ccc(C(F)(F)F)c(C(=O)N[C@@H]4CN(C(=O)C5(F)CC5)C[C@@H]4F)c3)cc(C(F)(F)F)c12 [Example 890, 5-[4-amino-5-(trifluoromethyl)pyrrolo[2,1-f][1,2,4]triazin-7-yl]-N-[(3R,4S)-4-fluoro-1-(1-fluorocyclopropanecarbonyl)pyrrolidin-3-yl]-2-(trifluoromethyl)benzamide]	0.092
